# Measured values as given in a collection of fitness landscapes (doi:10.1016/j.celrep.2020.107928).
# Whole data set: some 81,000 sequences, median “one-hybrid fitness for binding parS DNA” near -0.17, cut for the highest 2% near 0.51. Some of the results follow.
# B1: Caulobacter ParB omega fusion; a variant is named by its letters at X, in order, B8GW30 (parent)
# chain: MESVVVGEPGMSEGRRGLGRGLSALLGEVDAAPAQAPGEQLGGSREAPIEILQRNPDQPRRTFREEDLEDLSNSIREKGVLQPILVRPSPDTAGEYQIVAGERAWRAAQRAGLKTVPIMVRELDDLAVLEIGIIENVQRADLNVLEEALSYKVLMEKFERTQENIAQTIGKSXSHVANXMRLLXLPDEVQSYLVSGELTAXHARAIAAAADPVALAKQIIEGGLSVRETEALARKAPNLSAGKSKGGRPPRVKDTDTQALESDLSSVLGLDVSIDHRGSTGTLTITYATLEQLDDLCNRLTRGI
# Variants of: B1
# Assay: one-hybrid fitness for binding parS DNA (scaled: cognate 1, non-cognate 0); higher = stronger binding
# Details: with parS DNA site
# Method in brief: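 Pre- and post-selection plasmids were Illumina-sequenced, three replicate libraries were pooled, and any variant with under 10 reads was removed. The libraries were Caulobacter ParB with four specificity codons randomised, selected in E. coli USO through a HIS3 reporter whose site is 19 bp from the promoter. Cells grew 48 hours at 37°C on M9 without histidine, with 0.1 mM IPTG and 5 mM 3-AT. Fitness is the log change in variant-to-wild-type read ratio, rescaled against cognate and non-cognate.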
row,Variant,one-hybrid fitness for binding parS DNA
1,HTYL,≤ 0.2
2,MWGR,≤ 0.2
3,QCNG,≤ 0.2
4,PDAY,≤ 0.2
5,LSCF,≤ 0.2
6,QPDY,≤ 0.2
7,YLEF,≤ 0.2
8,VSEC,≤ 0.2
9,TAGA,≤ 0.2
10,WKRC,≤ 0.2
11,HKAA,≤ 0.2
12,RKRW,≤ 0.2
13,QFAS,≤ 0.2
14,VDMR,≤ 0.2
15,PCGY,≤ 0.2
16,GSSC,≤ 0.2
17,DWLR,≤ 0.2
18,EITM,≤ 0.2
19,PNCA,≤ 0.2
20,DYWG,≤ 0.2
21,SFRA,≤ 0.2
22,CSPA,≤ 0.2
23,TDLR,≤ 0.2
24,DDNI,≤ 0.2

row,Variant,one-hybrid fitness for binding parS DNA
1,KTVM,≤ 0.2
2,TEHL,≤ 0.2
3,QAKS,≤ 0.2
4,NTSA,≤ 0.2
5,DFRR,≤ 0.2
6,RATD,≤ 0.2
7,THYV,≤ 0.2
8,ATPC,≤ 0.2
9,YYTI,≤ 0.2
10,PHYM,≤ 0.2
11,RASP,≤ 0.2
12,NNPV,≤ 0.2
13,YPEL,≤ 0.2
14,PEPH,≤ 0.2
15,HRRH,≤ 0.2
16,FKHM,≤ 0.2
17,RYTK,≤ 0.2
18,KKGS,≤ 0.2
19,RQFI,≤ 0.2
20,ACDK,≤ 0.2
21,LEKF,≤ 0.2
22,HIIR,≤ 0.2
23,PFHY,≤ 0.2
24,RLKP,≤ 0.2

row,Variant,one-hybrid fitness for binding parS DNA
1,KRCN,≤ 0.2
2,IYMT,≤ 0.2
3,VSKV,≤ 0.2
4,SVTW,≤ 0.2
5,ASWR,≤ 0.2
6,CCHG,≤ 0.2
7,HPLR,≤ 0.2
8,HTTG,≤ 0.2
9,WVPV,≤ 0.2
10,CHVR,≤ 0.2
11,HRVP,≤ 0.2
12,SDGY,≤ 0.2
13,PVKS,≤ 0.2
14,WDTY,≤ 0.2
15,PTNL,≤ 0.2
16,QKRW,≤ 0.2
17,AKWG,≤ 0.2
18,GNKF,≤ 0.2
19,RPEC,≤ 0.2
20,KTNY,≤ 0.2
21,ELHL,≤ 0.2
22,LSVG,≤ 0.2
23,AAQN,≤ 0.2
24,TTIR,≤ 0.2

row,Variant,one-hybrid fitness for binding parS DNA
1,MNMG,≤ 0.2
2,CRLS,≤ 0.2
3,EATF,≤ 0.2
4,DRSG,≤ 0.2
5,CSYL,≤ 0.2
6,SCWC,≤ 0.2
7,MYQS,≤ 0.2
8,RTSP,≤ 0.2
9,FDRS,≤ 0.2
10,DLLS,≤ 0.2
11,HRDG,≤ 0.2
12,AQHG,≤ 0.2
13,SENR,≤ 0.2
14,SRLH,≤ 0.2
15,LATF,≤ 0.2
16,LGYW,≤ 0.2
17,GCYS,≤ 0.2
18,PASM,≤ 0.2
19,RPCA,≤ 0.2
20,GMLT,≤ 0.2
21,NGIA,≤ 0.2
22,DTEI,≤ 0.2
23,NKRM,≤ 0.2
24,RVRS,0.895

row,Variant,one-hybrid fitness for binding parS DNA
1,DNNN,≤ 0.2
2,DNSI,≤ 0.2
3,VGHC,≤ 0.2
4,RSFT,0.751
5,KTMM,≤ 0.2
6,SPES,≤ 0.2
7,SDLR,≤ 0.2
8,NCPG,≤ 0.2
9,TVAS,≤ 0.2
10,PGSA,≤ 0.2
11,SVTK,≤ 0.2
12,FNRH,≤ 0.2
13,LVVI,≤ 0.2
14,FREG,≤ 0.2
15,LVRT,≤ 0.2
16,CNQG,≤ 0.2
17,TWKW,≤ 0.2
18,VLPN,≤ 0.2
19,PAST,≤ 0.2
20,WTDV,≤ 0.2
21,QVTE,≤ 0.2
22,GDQE,≤ 0.2
23,QACH,≤ 0.2
24,RWGT,0.548

row,Variant,one-hybrid fitness for binding parS DNA
1,VTRL,≤ 0.2
2,RILI,≤ 0.2
3,MESR,≤ 0.2
4,AVKF,≤ 0.2
5,CAGS,≤ 0.2
6,QSQL,≤ 0.2
7,LTVF,≤ 0.2
8,PFYV,≤ 0.2
9,CDPV,≤ 0.2
10,RREG,0.915
11,CKPA,≤ 0.2
12,IKKT,≤ 0.2
13,MVPF,≤ 0.2
14,TTGL,≤ 0.2
15,ETNN,≤ 0.2
16,SCHG,≤ 0.2
17,STMV,≤ 0.2
18,KRHC,≤ 0.2
19,TRRS,≤ 0.2
20,HYKS,≤ 0.2
21,VMWR,≤ 0.2
22,IAKK,≤ 0.2
23,SRSW,≤ 0.2
24,MTHD,≤ 0.2

row,Variant,one-hybrid fitness for binding parS DNA
1,DGNV,≤ 0.2
2,TAPW,≤ 0.2
3,RCWI,0.301
4,CNLA,≤ 0.2
5,SGGR,≤ 0.2
6,LNQT,≤ 0.2
7,QKFR,≤ 0.2
8,AQWT,≤ 0.2
9,SLSG,≤ 0.2
10,PGPA,≤ 0.2
11,PTSN,≤ 0.2
12,WHGS,≤ 0.2
13,RDCC,≤ 0.2
14,VNDL,≤ 0.2
15,MDTS,≤ 0.2
16,YVLC,≤ 0.2
17,VVSG,≤ 0.2
18,DSTW,≤ 0.2
19,TDEP,≤ 0.2
20,WEHR,≤ 0.2
21,WSWD,≤ 0.2
22,TITK,≤ 0.2
23,DAQQ,≤ 0.2
24,NFGC,≤ 0.2

row,Variant,one-hybrid fitness for binding parS DNA
1,KENS,≤ 0.2
2,LWIT,≤ 0.2
3,HGNT,≤ 0.2
4,QRFI,≤ 0.2
5,GPFR,≤ 0.2
6,RMEG,0.86
7,RITW,0.203
8,VARK,≤ 0.2
9,MAPR,≤ 0.2
10,MLSC,≤ 0.2
11,HYTG,≤ 0.2
12,RCNN,0.459
13,PHKR,≤ 0.2
14,AYVW,≤ 0.2
15,TNTE,≤ 0.2
16,EAHE,≤ 0.2
17,HTFG,≤ 0.2
18,RMHC,0.979
19,LLDV,≤ 0.2
20,IVKL,≤ 0.2
21,RSPT,0.372
22,PMMD,≤ 0.2
23,PSMG,≤ 0.2
24,HVTC,≤ 0.2

row,Variant,one-hybrid fitness for binding parS DNA
1,SPAE,≤ 0.2
2,CVRG,≤ 0.2
3,VIMG,≤ 0.2
4,VSAI,≤ 0.2
5,VWMR,≤ 0.2
6,GRPP,≤ 0.2
7,QNDG,≤ 0.2
8,PTNV,≤ 0.2
9,PFGG,≤ 0.2
10,YYAT,≤ 0.2
11,LNHD,≤ 0.2
12,YCPR,≤ 0.2
13,CLTA,≤ 0.2
14,FDVL,≤ 0.2
15,LDMC,≤ 0.2
16,PLYD,≤ 0.2
17,GTMF,≤ 0.2
18,LRLM,≤ 0.2
19,QWHG,≤ 0.2
20,EPRG,≤ 0.2
21,PRCV,≤ 0.2
22,SLCI,≤ 0.2
23,SELL,≤ 0.2
24,TEQC,≤ 0.2

row,Variant,one-hybrid fitness for binding parS DNA
1,EGYS,≤ 0.2
2,FTCC,≤ 0.2
3,FSRA,≤ 0.2
4,DRCG,≤ 0.2
5,FIER,≤ 0.2
6,ECPE,≤ 0.2
7,QWQI,≤ 0.2
8,EFAL,≤ 0.2
9,QAYG,≤ 0.2
10,QFLA,≤ 0.2
11,HKYC,≤ 0.2
12,PPGG,≤ 0.2
13,GPWL,≤ 0.2
14,IHST,≤ 0.2
15,YPQG,≤ 0.2
16,RSVH,≤ 0.2
17,KTPS,≤ 0.2
18,TGSD,≤ 0.2
19,MNLS,≤ 0.2
20,WVDG,≤ 0.2
21,KRPT,≤ 0.2
22,NPWG,≤ 0.2
23,QYWT,≤ 0.2
24,YNCT,≤ 0.2

row,Variant,one-hybrid fitness for binding parS DNA
1,GNQV,≤ 0.2
2,RFQS,1
3,QMQE,≤ 0.2
4,TSHF,≤ 0.2
5,GHDT,≤ 0.2
6,MGHE,0.254
7,DWSC,≤ 0.2
8,RQFL,≤ 0.2
9,QIVI,≤ 0.2
10,ADGP,≤ 0.2
11,VPIT,≤ 0.2
12,PQTG,≤ 0.2
13,TAYI,≤ 0.2
14,EGNL,≤ 0.2
15,RAFA,0.624
16,KCKT,≤ 0.2
17,YSVR,≤ 0.2
18,SSVD,≤ 0.2
19,LNDM,≤ 0.2
20,VTVQ,≤ 0.2
21,ETAY,≤ 0.2
22,EIIS,≤ 0.2
23,PANV,≤ 0.2
24,DTAD,≤ 0.2

row,Variant,one-hybrid fitness for binding parS DNA
1,KILV,≤ 0.2
2,HKCT,≤ 0.2
3,YEVR,≤ 0.2
4,AQAP,≤ 0.2
5,PWMT,≤ 0.2
6,ENTR,≤ 0.2
7,RNSI,≤ 0.2
8,TPVS,≤ 0.2
9,HKYG,≤ 0.2
10,RGAY,≤ 0.2
11,CHKS,≤ 0.2
12,EYVS,≤ 0.2
13,NTWF,≤ 0.2
14,VAQF,≤ 0.2
15,HGQK,≤ 0.2
16,GPPY,≤ 0.2
17,VMLF,≤ 0.2
18,RGAC,0.584
19,HNPP,0.237
20,HIPT,≤ 0.2
21,TNKG,≤ 0.2
22,QCHY,≤ 0.2
23,SVNA,≤ 0.2
24,HCLI,≤ 0.2

row,Variant,one-hybrid fitness for binding parS DNA
1,ANMC,≤ 0.2
2,RCVN,0.406
3,KMYR,≤ 0.2
4,GRHM,≤ 0.2
5,RIRH,0.29
6,CSTN,≤ 0.2
7,PFTD,≤ 0.2
8,RFEG,0.731
9,LDSS,≤ 0.2
10,LCLR,≤ 0.2
11,LFKT,≤ 0.2
12,YSPS,≤ 0.2
13,SPTY,≤ 0.2
14,GSHE,≤ 0.2
15,LSWA,≤ 0.2
16,ACIS,≤ 0.2
17,EMLV,≤ 0.2
18,DMCT,≤ 0.2
